Assay results reported in PMC6919601, “Identification of Plasmodium dipeptidyl aminopeptidase allosteric inhibitors by high throughput screening” (PLoS ONE, 2019).
About 230 (0.21%) of roughly 110,000 compounds showed an effect of 50% or more. Some of the results follow.

target: DPAP1 (Plasmodium falciparum, UniProt Q8IIJ9); test: primary screen, percent inhibition; read by cleavage of a fluorogenic dipeptide substrate; higher = more effect of the substance; design: species or system P. falciparum D10 trophozoite lysates; single well
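Also: 30 min substrate incubation versus DMSO and 10 µM JCP410 controls.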

Chain of DPAP1 (Q8IIJ9 whole entry, looked up): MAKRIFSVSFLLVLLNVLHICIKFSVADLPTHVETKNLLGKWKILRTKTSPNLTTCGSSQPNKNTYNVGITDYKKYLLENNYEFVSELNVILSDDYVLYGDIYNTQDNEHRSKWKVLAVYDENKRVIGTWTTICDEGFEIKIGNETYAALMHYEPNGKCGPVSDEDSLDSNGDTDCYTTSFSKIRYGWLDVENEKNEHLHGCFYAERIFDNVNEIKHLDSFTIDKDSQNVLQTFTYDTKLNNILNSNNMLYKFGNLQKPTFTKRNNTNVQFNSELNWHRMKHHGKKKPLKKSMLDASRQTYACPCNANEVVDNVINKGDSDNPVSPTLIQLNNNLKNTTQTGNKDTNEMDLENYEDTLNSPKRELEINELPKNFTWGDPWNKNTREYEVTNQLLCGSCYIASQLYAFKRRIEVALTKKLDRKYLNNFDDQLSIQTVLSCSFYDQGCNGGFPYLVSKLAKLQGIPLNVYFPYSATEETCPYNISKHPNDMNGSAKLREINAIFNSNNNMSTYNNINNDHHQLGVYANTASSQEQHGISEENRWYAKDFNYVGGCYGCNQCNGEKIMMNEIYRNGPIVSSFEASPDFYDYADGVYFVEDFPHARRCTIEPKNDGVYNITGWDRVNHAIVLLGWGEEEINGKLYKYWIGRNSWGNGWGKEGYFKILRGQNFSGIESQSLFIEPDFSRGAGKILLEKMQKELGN

| SMILES | % Inhibition @ 10 uM |
| --- | --- |
| Cn1nnnc1SCCNCc1c(OCc2ccc(F)cc2)ccc2ccccc12 | -5.33% |
| COCC(=O)Nc1nc(-c2ccccc2)ns1 | -10.6% |
| CC(=O)C1=C(Nc2ccc(Br)cc2)CC(C)(C)CC1=O | -3.46% |
| CCCC(=O)Nc1c2c(nn1-c1ccc(C)cc1)CSC2 | 3.06% |
| CC(CNc1nc2c(S(=O)(=O)c3ccccc3)nnn2c2ccccc12)c1ccccc1 (centres unmarked) | -4.85% |
| C=CCn1c(O)c(CC)c(=O)[nH]c1=S | -3.8% |
| CCOc1ccc(CNC(=O)C2CCN(S(=O)(=O)N3CCC4(CC3)OCCO4)CC2)cc1OC | 0.514% |
| CCc1ccc(Sc2cc(C(=O)NCCN3CCOCC3)c3ccccc3n2)cc1 | -1.79% |
| NC(=O)c1cccc(NC(=O)Nc2ccc(Cl)cc2)c1 | 2.76% |
| O=C1c2ccc(F)cc2C(=O)N1c1ccc2c(c1)OCCO2 | -2.32% |
| COc1ccccc1NC(=O)c1ccc([N+](=O)[O-])cc1C(=O)O | 17.9% |
| SCCNCCc1c[nH]c2ccccc12 | -3.58% |
| Cc1cccc(C2CC(=O)NC3=C2C(=O)CC(c2cccs2)C3)c1 (centres unmarked) | -6.14% |
| COc1nc(-c2ccccc2)cc(-c2ccccc2)c1C#N | -3.72% |
| CCOC(=O)c1c(-c2ccccc2)csc1NC(=O)c1onc(C)c1Cl | 1.42% |
| CCOC(=O)c1cnc2c(OC)cccc2c1O | -2.97% |
| COc1ccc2nc(NC(=O)Cn3nc(Cc4ccncc4)c4ccccc4c3=O)sc2c1 | -4.69% |
| O=C(/C=C/c1ccccc1Cl)Nc1ccc(Br)cc1 | 4.6% |
| Cc1ccc(S(=O)(=O)/N=S(\C)CC2CC2(Cl)Cl)cc1 (centres unmarked) | -0.0626% |
| Oc1nc2sc3c(c2c2ncnn12)CCCC3 | -1.69% |
| CC(C)(C)C1(O)CC(C(F)F)=NN1C(=O)c1ccccc1 (centres unmarked) | 1.96% |
| Cc1ccc(CNC(=O)c2cc3c(s2)-c2ccccc2S(=O)(=O)C3)cc1 | -0.72% |
| CC(CNC(C)c1ccccc1)C(=O)O (centres unmarked) | 3.42% |
| O=C1c2ccccc2C(c2ccc(O)cc2)(c2ccc(O)cc2)N1c1ccccc1 | 17.4% |
| CCCCn1c(=O)c2oc3ccccc3c2n(Cc2ccccc2)c1=O | 7.08% |
| Cc1ccc(C)c(OCCCn2cc(/C=C3/C(=N)N4C=CSC4=NC3=O)c3ccccc32)c1 | -3.41% |
| CCOC(=O)c1cc2nc(-c3ccccc3)cc(C)n2n1 | -0.267% |
| COc1ccc(NC(=O)CC(C)C)cc1NC(=O)c1ccco1 | -11.5% |
| O=C(NCc1cccc2ccccc12)C1CCCO1 (centres unmarked) | 1.84% |
